To fix the notation:
T1: RBFOX1 RRM (Homo sapiens, UniProt Q9NWB1 109-208)
T1 sequence: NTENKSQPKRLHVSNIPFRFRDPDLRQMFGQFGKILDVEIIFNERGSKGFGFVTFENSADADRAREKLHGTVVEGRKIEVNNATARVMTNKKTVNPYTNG

B1: GCAACGU (DNA:RNA)
RNA: GGGAGACCGGAAUUCAGAUUGUCCGCAACGUUUAAAUCCCGUCGUAGCCACCA
DNA 1: CAATCTGAATTCCGGTCTCCC
DNA 2: TGGTGGCTACGACGGGATT
B2: UUACAUA (DNA:RNA)
RNA: B1 RNA with G25U, C26U, A28C, C29A, G30U, U31A
DNA 1: CAATCTGAATTCCGGTCTCCC
DNA 2: TGGTGGCTACGACGGGATT
B3: UGCUGGU (DNA:RNA)
RNA: B1 RNA with G25U, C26G, A27C, A28U, C29G
DNA 1: CAATCTGAATTCCGGTCTCCC
DNA 2: TGGTGGCTACGACGGGATT
B4: CCCUCGG (DNA:RNA)
RNA: B1 RNA with G25C, A27C, A28U, U31G
DNA 1: CAATCTGAATTCCGGTCTCCC
DNA 2: TGGTGGCTACGACGGGATT
B5: AUCCGGA (DNA:RNA)
RNA: B1 RNA with G25A, C26U, A27C, A28C, C29G, U31A
DNA 1: CAATCTGAATTCCGGTCTCCC
DNA 2: TGGTGGCTACGACGGGATT
B6: UUUGACG (DNA:RNA)
RNA: GGGAGACCGGAAUUCAGAUUGUCCUUUGACGUUAAAUCCCGUCGUAGCCACCA
DNA 1: CAATCTGAATTCCGGTCTCCC
DNA 2: TGGTGGCTACGACGGGATT
B7: AGCACGU (DNA:RNA)
RNA: B1 RNA with G25A, C26G, A27C
DNA 1: CAATCTGAATTCCGGTCTCCC
DNA 2: TGGTGGCTACGACGGGATT
B8: UCGUUAU (DNA:RNA)
RNA: B1 RNA with G25U, A27G, A28U, C29U, G30A
DNA 1: CAATCTGAATTCCGGTCTCCC
DNA 2: TGGTGGCTACGACGGGATT
B9: UCACUCG (DNA:RNA)
RNA: B6 RNA with U26C, U27A, G28C, A29U
DNA 1: CAATCTGAATTCCGGTCTCCC
DNA 2: TGGTGGCTACGACGGGATT
B10: CACAUGA (DNA:RNA)
RNA: B1 RNA with G25C, C26A, A27C, C29U, U31A
DNA 1: CAATCTGAATTCCGGTCTCCC
DNA 2: TGGTGGCTACGACGGGATT
B11: CCUCCAU (DNA:RNA)
RNA: B1 RNA with G25C, A27U, A28C, G30A
DNA 1: CAATCTGAATTCCGGTCTCCC
DNA 2: TGGTGGCTACGACGGGATT
B12: CUCCGCA (DNA:RNA)
RNA: B6 RNA with U25C, U27C, G28C, A29G, G31A
DNA 1: CAATCTGAATTCCGGTCTCCC
DNA 2: TGGTGGCTACGACGGGATT
B13: UGGAAUG (DNA:RNA)
RNA: B6 RNA with U26G, U27G, G28A, C30U
DNA 1: CAATCTGAATTCCGGTCTCCC
DNA 2: TGGTGGCTACGACGGGATT
B14: UGUGUGA (DNA:RNA)
RNA: B6 RNA with U26G, A29U, C30G, G31A
DNA 1: CAATCTGAATTCCGGTCTCCC
DNA 2: TGGTGGCTACGACGGGATT
B15: AUGCUAC (DNA:RNA)
RNA: B6 RNA with U25A, U27G, G28C, A29U, C30A, G31C
DNA 1: CAATCTGAATTCCGGTCTCCC
DNA 2: TGGTGGCTACGACGGGATT
B16: AGGAUGU (DNA:RNA)
RNA: B1 RNA with G25A, C26G, A27G, C29U
DNA 1: CAATCTGAATTCCGGTCTCCC
DNA 2: TGGTGGCTACGACGGGATT
B17: AGUGCAG (DNA:RNA)
RNA: B6 RNA with U25A, U26G, A29C, C30A
DNA 1: CAATCTGAATTCCGGTCTCCC
DNA 2: TGGTGGCTACGACGGGATT
B18: GGUCAGC (DNA:RNA)
RNA: B1 RNA with C26G, A27U, A28C, C29A, U31C
DNA 1: CAATCTGAATTCCGGTCTCCC
DNA 2: TGGTGGCTACGACGGGATT
B19: GCGGCGA (DNA:RNA)
RNA: B1 RNA with A27G, A28G, U31A
DNA 1: CAATCTGAATTCCGGTCTCCC
DNA 2: TGGTGGCTACGACGGGATT
B20: GGUGUCU (DNA:RNA)
RNA: B6 RNA with U25G, U26G, A29U, G31U
DNA 1: CAATCTGAATTCCGGTCTCCC
DNA 2: TGGTGGCTACGACGGGATT

The text below walks through data of PMC9911399, “Two distinct binding modes provide the RNA-binding protein RbFox with extraordinary sequence specificity”.

Numbering of substitutions follows the chain as printed; changes in the protein carry UniProt numbers. This is one part of the list.

The assay addresses T1, RBFOX1 RRM. The assay is described as follows: EMSA; HiTS-Eq, 1 nM pool, 10 min; buffer printed only for the single-RNA assays: 10 mM Tris pH 7.5, 150 mM NaCl, 3.4 mM EDTA, 0.001% NP-40, 30 C. Particulars: tags: His6 N-terminal (pET28a); label: 5' 32P. In short, it runs like this:
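A pool of RNA with 7 randomized nucleotides, 5′-radiolabelled and with DNA-annealed flanks, was equilibrated at 1 nM for 10 min in 50 µL with purified RbFox RRM, wild type or mutant, across increasing protein concentrations. Free RNA was separated by 8% native PAGE, excised, reverse-transcribed, barcoded by PCR and sequenced. Relative association constants were obtained from read-count changes of each RNA species versus the control reaction and normalised to the cognate motif.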
As for B1, the binding signal is 0.00826 KA relative to UGCAUGU. Under B2 stands 0.00214 KA relative to UGCAUGU; under B3, 0.028 KA relative to UGCAUGU. The figure for B4 is 0.00996 KA relative to UGCAUGU; for B5 it is 0.0045 KA relative to UGCAUGU; for B6 it is 0.0112 KA relative to UGCAUGU. Turning to B7, the binding signal is 0.0367 KA relative to UGCAUGU. In the case of B8, the binding signal is 0.011 KA relative to UGCAUGU.

Turning to B9, the binding signal was 0.00518 KA relative to UGCAUGU. Under B10 stands 0.00324 KA relative to UGCAUGU; under B11, 0.00284 KA relative to UGCAUGU; under B12, 0.00764 KA relative to UGCAUGU. Under B13 stands 0.0953 KA relative to UGCAUGU; under B14, 0.0276 KA relative to UGCAUGU. The figure for B15 is 0.0089 KA relative to UGCAUGU. In the case of B16, the binding signal was 0.0179 KA relative to UGCAUGU. The figure for B17 is 0.0167 KA relative to UGCAUGU. Under B18 stands 0.0143 KA relative to UGCAUGU; under B19, 0.0227 KA relative to UGCAUGU.

On to B20, for which the binding signal is 0.0102 KA relative to UGCAUGU.
